For 42 sequences, binding signal results are on record in PMC7819943, “Rice protein-binding microarrays: a tool to detect cis-acting elements near promoter regions in rice”.

This is one part of the list.

This assay concerns the target T1, OsWOX13 (Oryza sativa, UniProt Q5QMM3 1-267).
T1 sequence: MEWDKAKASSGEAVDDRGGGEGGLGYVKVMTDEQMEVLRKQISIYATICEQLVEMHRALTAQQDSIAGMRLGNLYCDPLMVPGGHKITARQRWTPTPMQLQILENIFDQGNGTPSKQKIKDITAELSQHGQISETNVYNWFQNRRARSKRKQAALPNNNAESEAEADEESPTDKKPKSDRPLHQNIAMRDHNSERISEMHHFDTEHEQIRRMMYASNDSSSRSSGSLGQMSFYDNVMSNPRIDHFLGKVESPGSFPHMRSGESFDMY
Kind of assay: protein-binding microarray (RPBM); PBS, 2% BSA, 51.3 ng/ul salmon testes DNA, 50 uM zinc acetate, 200 nM TF, 25 C, 1 h; high values mean tight binding. As to conditions: protein: recombinant; tags: N-terminal polyhistidine and DsRed monomer fusion (pET32a); label: CyDye5-dUTP incorporated in the synthesized complementary strand; 3' TTTTT single-stranded linker to array surface; dsDNA, one strand shown. An outline of the steps: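 Binding signal is defined as the fluorescence intensity of each feature in arbitrary units, read on an Axon 4000B scanner. Transcription factors with N-terminal polyhistidine and DsRed fusions came from E. coli BL21-CodonPlus and were purified on Ni–NTA. They were incubated at 200 nM for 1 h at 25 °C on a custom Agilent array that had been made double-stranded with Cy5-dUTP, with 50 µM zinc acetate present, and the array was washed.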
Consider “GGTAGAATTAAATAGGAATAATTTTCGATCGGTTTTCGATCGGAGTCACCTAGTGCAG”, for which the binding signal is 6170 fluorescence intensity (a.u.).
The result for “GGTAATAATTTGTTTAGCTCCTGGTTTGGAATGGTATATTCGGAGTCACCTAGTGCAG” reads 7090 fluorescence intensity (a.u.); that for “AATCGCATTTCCAATCACAGCATCATTATTAAGGACAAGGCGGAGTCACCTAGTGCAG”, 16700 fluorescence intensity (a.u.).
To “ATGATAGATTATTATAATCTATAAGTCAGATAACTATAATCGGAGTCACCTAGTGCAG” belongs 28300 fluorescence intensity (a.u.).
As to “TTTTGAGCCTAATTAATCTGTCATTAGCACATGTGGGTTACGGAGTCACCTAGTGCAG”, the binding signal is 5400 fluorescence intensity (a.u.).
To “TTAAATTGTATACGATAGATTTACTGAGTTGAGCACTCTCCGGAGTCACCTAGTGCAG” belongs 6330 fluorescence intensity (a.u.); to “CTTAAACAATTAATCATCATCTCATACAATTATTCCAGTCCGGAGTCACCTAGTGCAG”, 10200 fluorescence intensity (a.u.); to “GAGAATGGTGATGAATGGGCCTATCAGAGGAAGATAATTGCGGAGTCACCTAGTGCAG”, 3250 fluorescence intensity (a.u.).
For “ACATATTCCATGAATGATTGATCTCTTTTGCATTTGTTCGCGGAGTCACCTAGTGCAG”, the binding signal was 9020 fluorescence intensity (a.u.).
To “GTTATGAGAAACATCATGTTGATTAGGCAGCTTGACCTGACGGAGTCACCTAGTGCAG” belongs 3280 fluorescence intensity (a.u.); to “GAAATCTCCATGATTTGTACTGTTCGTTCGTCATCGCGATCGGAGTCACCTAGTGCAG”, 4290 fluorescence intensity (a.u.); to “TTGATCAATTATATATTATTTTAGAAAACAAAAGCGTGCACGGAGTCACCTAGTGCAG”, 19000 fluorescence intensity (a.u.).
To “GATAATTAAGAAACCAAATTAGTACACCTAGCTCTGTCTGCGGAGTCACCTAGTGCAG” belongs 36100 fluorescence intensity (a.u.); to “CTCTCCTTAATTTCTTGAATTGCTATCCGATCCTGAGCAACGGAGTCACCTAGTGCAG”, 6820 fluorescence intensity (a.u.).
For the sequence “TCTTATAATCACATCAAGTTTAAATTGCAACAAATAACAACGGAGTCACCTAGTGCAG”, the binding signal was 6830 fluorescence intensity (a.u.).
In the case of “ATTGTTAATTTTAGATAGTATAAAGTTTCACCACCATTAACGGAGTCACCTAGTGCAG”, the binding signal was 3240 fluorescence intensity (a.u.).
Consider “TCCATCTCCGGCGAGTTGATTGGCTGACTGACTGGCGGCGCGGAGTCACCTAGTGCAG”, for which the binding signal was 34100 fluorescence intensity (a.u.).
To “TCTTGATGAATAATTCTATTAGGCTCTAACCAGCGGTGCACGGAGTCACCTAGTGCAG” belongs 15800 fluorescence intensity (a.u.); to “CAAAATCAAATTCAAATTTTGGGCAAACGATGAGGTCCTTCGGAGTCACCTAGTGCAG”, 4350 fluorescence intensity (a.u.); to “GCTTACCAAATTTCACTGTTAACAGATACCCATGGATGGTCGGAGTCACCTAGTGCAG”, 7620 fluorescence intensity (a.u.).
With “AAATATATTGTACAATTAATTAGTTAGCAGGTTTTGCACCCGGAGTCACCTAGTGCAG”, the binding signal is 12900 fluorescence intensity (a.u.).
To “AAAATTGATATGTAATTATGACACACTTACGTCGGATATGCGGAGTCACCTAGTGCAG” belongs 64500 fluorescence intensity (a.u.); to “CGGAATTGAAAACCACGGATACAAAAGCATAATCAAATATCGGAGTCACCTAGTGCAG”, 3300 fluorescence intensity (a.u.).
To “GTTTAGGACCTTTGATTTGTTGGTGACAGAACCCAAGGCGCGGAGTCACCTAGTGCAG” belongs 6360 fluorescence intensity (a.u.); to “ATAACAAATTAGAAACTGGAGGGAGGAGTAAAATTGGAGGCGGAGTCACCTAGTGCAG”, 6910 fluorescence intensity (a.u.).
To “GAACGTGATTAAATTTCTCACCCTCACTTCGGTCAGTTGGCGGAGTCACCTAGTGCAG” belongs 39900 fluorescence intensity (a.u.).
“TTTTATAATTTCTCTTCTTATTATGAAGACTTGGGCCGTTCGGAGTCACCTAGTGCAG”: the binding signal is 3690 fluorescence intensity (a.u.).
To “CTGATGACGAAATTGGAGGGAGTAGATTATTAGCAATAGTCGGAGTCACCTAGTGCAG” belongs 6800 fluorescence intensity (a.u.); to “GATTAATTGTTGCATTTAAAATGTGGGTCATGACCGCTATCGGAGTCACCTAGTGCAG”, 26600 fluorescence intensity (a.u.).
For the sequence “GGTAATTTTCCATGAAATGGTAGTTTGAGCATGTGGGGAACGGAGTCACCTAGTGCAG”, the binding signal was 7700 fluorescence intensity (a.u.).
To “GCGTCACCATGATTACCTGGCTTTCTGGGCCAGACACGCCCGGAGTCACCTAGTGCAG” belongs 3350 fluorescence intensity (a.u.); to “ACATAGATTATAGATAATCGGATTCGTTGACATACCTCAGCGGAGTCACCTAGTGCAG”, 12100 fluorescence intensity (a.u.); to “AAAATATAATAGATAACTAGATATATCGTTTTGCTTATGTCGGAGTCACCTAGTGCAG”, 5590 fluorescence intensity (a.u.).
Turning to “TCTAATATAGAAAATTTACGATGATATGGATCCAATCTATCGGAGTCACCTAGTGCAG”, the binding signal is 3820 fluorescence intensity (a.u.).
Turning to “CGAGGAATTCAGTGATGGACTGATAGAAGTTCGGTCTGACCGGAGTCACCTAGTGCAG”, the binding signal is 3280 fluorescence intensity (a.u.).
To “ACACCATGATTTGACAATGTGGTGATACAGTAAACATTTACGGAGTCACCTAGTGCAG” belongs 9110 fluorescence intensity (a.u.); to “CCTAATAATTAATTAATGATGCACGAGGGATTATCCAACTCGGAGTCACCTAGTGCAG”, 53200 fluorescence intensity (a.u.); to “ACTATAATCAAATCATCCACCATATCGTCGACCGACCAACCGGAGTCACCTAGTGCAG”, 5400 fluorescence intensity (a.u.).
To “TTCATCCATCTATTATAAAACTGAAACTCTGATGAGTTTTCGGAGTCACCTAGTGCAG” belongs 3180 fluorescence intensity (a.u.); to “GTATGAATAAATTATTAGATTAGCTATAGATTAATTGAAGCGGAGTCACCTAGTGCAG”, 16400 fluorescence intensity (a.u.); to “GACAAGCGTGATTAGTTCCAAATTCCAAGGCATTTTCTGACGGAGTCACCTAGTGCAG”, 13400 fluorescence intensity (a.u.).
With “ATAATAATTCTGAATTAACAAATGGCGCAAATTGACATGGCGGAGTCACCTAGTGCAG”, the binding signal was 23900 fluorescence intensity (a.u.).
